Columns and labels:
b-GST-boxA(red) = molecular target: T1, b-GST-boxA(red) (Homo sapiens, UniProt P09429); assay: ELISA screening of Z variants against reduced A-box; type: binding; details: target concentration 2 nM; periplasmic Z-ABD fusion; at least 3× the blank control
T1 construct: purchased HMGBiotech Srl, Milano, Italy
Experimental: (§1) ELISA screening of Z variants against reduced A-box and B-box: The binding of Z variants to HMGB1 was analyzed in ELISA assays. Half-area 96-well ELISA plates (Greiner, cat. no. 675061) were coated at 4° C. overnight with 2 μg/ml of an anti-ABD goat antibody (produced in-house) diluted in coating buffer (50 mM sodium carbonate, pH 9.6; Sigma, cat. no. C3041). The antibody solution was poured off and the wells were washed in water and blocked with 100 μl of PBSC (PBS supplemented with 0.5% casein; Sigma, cat. no. C8654) for 1-3 h at RT. The blocking solution was discarded and 50 μl periplasmic solutions, diluted 1:16 with PBST 0.05%, were added to the wells and incubated for 1.5 to 2.5 h at RT under slow agitation. As a negative control, periplasmic ABD was added. The supernatants were poured off and the wells were washed 4 times with PBST 0.05%. Then, 50 μl of either b-GST-boxA(red), at a concentration of 2 nM, or b-GST-boxB(red), at a concentration of 100 nM, in PBSC+1-2 mM DTT, was added to each well of A-box binding Z-variants or B-box binding Z-variant, respectively. The plates were incubated for 1 h at RT followed by washes as described above. Streptavidin conjugated HRP (Thermo Scientific, cat. no. N100) diluted 1:30,000 in PBSC+1-2 mM DTT, was added to the wells and the plates were incubated for approximately 45 min. After washing as described above, 50 μl ImmunoPure TMB substrate (Thermo Scientific, cat. no. 34021) was added to the wells and the plates were treated according to the manufacturer's recommendations. The absorbance at 450 nm was measured using a multi-well plate reader, Victor3 (Perkin Elmer).

b-boxA(disulfide) = molecular target: T2, b-boxA(disulfide) (Homo sapiens, UniProt P09429); assay: ELISA screening against the disulfide form of A-box; type: binding; details: target concentration 1000 nM; at least 3× the blank control
T2 construct: purchased HMGBiotech Srl, Milano, Italy
T2 sequence (P09429 1-89): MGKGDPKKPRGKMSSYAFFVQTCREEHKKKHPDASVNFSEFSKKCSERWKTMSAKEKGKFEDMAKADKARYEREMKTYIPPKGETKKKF
Experimental: as §1
(§2) ELISA screening of Z variants against the disulfide form of A-box and against HMGB1: To find out if selected A-box binding Z variants could also bind the disulfide form of HMGB1, A-box binding variants were screened in the same setup as described above against b-boxA(disulfide) at a concentration of 1000 nM and b-HMGB1(disulfide) at a concentration of 100 nM in PBSC.).

[1] = Circular dichroism (CD) spectroscopy, variable temperature measurement; type: physicochemical; details: His6-tagged Z variants; CD at 221 nm, 20 to 80-90° C.
Experimental: Circular dichroism (CD) spectroscopy analysis: The His6-Z variants produced in Example 2 were diluted to 25 μM in PBS or H2O. A CD spectrum at 250-195 nm was obtained at 20° C. In addition, a variable temperature measurement (VTM) was performed to determine the melting temperature (Tm). In the VTM, absorbance was measured at 221 nm while the temperature was raised from 20° C. to 80° C. (in some cases to 90° C.), with a temperature slope of 5° C./min. A new CD spectrum was obtained at 20° C. after the heating procedure, in order to study the refolding ability of the Z variants. The CD measurements were performed on a Jasco J-810 spectropolarimeter (Jasco Scandinavia AB) using a cell with an optical path length of 1 mm.
Circular dichroism (CD) spectroscopy analysis: The measurements were performed essentially as described in Example 3.

b-HMGB1(disulfide) = molecular target: T3, b-HMGB1(disulfide) (Rattus norvegicus, UniProt P63159); assay: ELISA screening against HMGB1(disulfide); type: binding; details: target concentration 100 nM; at least 3× the blank control
T3 construct: purchased HMGBiotech Srl, Milano, Italy
T3 sequence (P63159 1-215): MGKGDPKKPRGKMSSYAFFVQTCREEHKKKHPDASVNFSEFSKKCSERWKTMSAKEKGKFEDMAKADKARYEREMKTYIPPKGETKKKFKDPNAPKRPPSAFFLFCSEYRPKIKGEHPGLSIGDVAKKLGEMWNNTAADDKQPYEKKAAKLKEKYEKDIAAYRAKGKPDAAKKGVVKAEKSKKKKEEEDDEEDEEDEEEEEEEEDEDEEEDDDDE
Experimental: as §1, §2

b-GST-boxB(red) = molecular target: T4, b-GST-boxB(red) (Homo sapiens, UniProt P09429); assay: ELISA screening of Z variants against reduced B-box; type: binding; details: target concentration 100 nM; periplasmic Z-ABD fusion; at least 2.3× the blank control
T4 construct: purchased HMGBiotech Srl, Milano, Italy
Experimental: as §1, with “Streptavidin conjugated HRP (Thermo Scientific, cat. no. N100) diluted 1:30,000 in PBSC+1-2 mM DTT, was added to the wells and the plates were incubated for approximately 45 min. After washing as described above, 50 μl ImmunoPure TMB substrate (Thermo Scientific, cat. no. 34021) was added to the wells and the plates were treated according to the manufacturer's recommendations.” left out

HMGB1(red) = molecular target: T5, HMGB1(red) (Rattus norvegicus, UniProt P63159); assay: In vitro cell migration assay, mouse 3T3 fibroblasts in modified Boyden chambers; type: cell-based; details: 1 nM or 0.2 nM HMGB1(red), 3 h
T5 construct: purchased HMGBiotech Srl, Milano, Italy
T5 sequence (P63159 2-215): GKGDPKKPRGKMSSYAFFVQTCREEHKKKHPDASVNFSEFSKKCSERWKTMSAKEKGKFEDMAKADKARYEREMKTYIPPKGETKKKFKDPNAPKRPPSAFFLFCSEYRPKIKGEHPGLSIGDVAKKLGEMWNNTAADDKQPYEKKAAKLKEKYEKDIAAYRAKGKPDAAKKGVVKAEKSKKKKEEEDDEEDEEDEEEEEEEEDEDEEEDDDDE
Experimental: In vitro cell migration assay: Mouse 3T3 fibroblast cells were used to assess the ability of His6-tagged Z variants to inhibit migration of cells in response to HMGB1 in modified Boyden Chambers (Neuroprobe Inc.). Mouse 3T3 fibroblasts were grown in Dulbecco's Modified Eagle Medium (DMEM, Gibco) with 10% fetal bovine serum (FBS, Gibco), 1% L-glutamine and antibiotics (Lonza). Prior to use, cells were centrifuged and the pellet was resuspended in DMEM (without FBS) without further washing. Polycarbonate filters (Neuroprobe Inc.; #PFA8) with 8 μm pores were coated with human fibronectin (Roche). Serum-free DMEM (negative control), DMEM containing 1 nM HMGB1(red) (positive control), and DMEM containing 1 nM HMGB1(red) plus Z variants ZH 01 (SEQ ID NO:1) and ZH 31 (SEQ ID NO:31) at a concentration of 10 or 100 ng/ml, were placed in the lower wells. A control polypeptide, Z04726 (SEQ ID NO:54), binding an irrelevant target, was used as negative control. boxA(red) (SEQ ID NO:51), a known competitor of HMGB1, was used at 1 nM concentration as positive control for inhibition of HMGB1 induced cell migration. Fibronectin-coated filters were placed so as to separate the lower and the upper wells, and 50000 3T3 cells were placed in the upper wells. The chambers were kept at 37° C. in a 5% CO2, humidified incubator for 3 h. The cells were then fixed with 100% ethanol (Sigma) and stained 20 minutes with Giemsa Stain (Sigma). The cells on the lower side of the filter were counted with a Leica DM LS2 microscope at 400× magnification.
ZH 30 was tested in a migration assay by performing an extended titration to allow IC50 calculations with 0.2 nM HMGB1(red) and lower concentrations of Z variants (0.1 ng/ml, 0.3 ng/ml, 1 ng/ml). A control polypeptide, ZZA4014 (SEQ ID NO:49), binding an irrelevant target and cloned and produced as described in Example 4, was used as negative control in this set up.
In vitro cell migration assay: The migration assay was performed essentially as described for monomeric Z variants in Example 3. One monomeric Z-ABD polypeptide, ZA3812 (SEQ ID NO:35); five heterodimeric polypeptides, ZZA4010 (SEQ ID NO:38), ZZA4011 (SEQ ID NO:39), ZZA4012 (SEQ ID NO:40), ZZA4013 (SEQ ID NO:41) and ZAZ4015 (SEQ ID NO:42); and three homodimeric polypeptides, ZZA4053 (SEQ ID NO:43), ZZA4054 (SEQ ID NO:44) and AZ4057 (SEQ ID NO:45), were tested in a migration assay by performing an extended titration, to allow IC50 calculations with 0.2 nM HMGB1 and reducing doses of polypeptides (0.1 nM, 0.3 nM, 1 nM). ZZA4014 (SEQ ID NO:49), binding an irrelevant target, was included as a negative control.

T4 sequence (P09429 with tags, fused parts or gaps): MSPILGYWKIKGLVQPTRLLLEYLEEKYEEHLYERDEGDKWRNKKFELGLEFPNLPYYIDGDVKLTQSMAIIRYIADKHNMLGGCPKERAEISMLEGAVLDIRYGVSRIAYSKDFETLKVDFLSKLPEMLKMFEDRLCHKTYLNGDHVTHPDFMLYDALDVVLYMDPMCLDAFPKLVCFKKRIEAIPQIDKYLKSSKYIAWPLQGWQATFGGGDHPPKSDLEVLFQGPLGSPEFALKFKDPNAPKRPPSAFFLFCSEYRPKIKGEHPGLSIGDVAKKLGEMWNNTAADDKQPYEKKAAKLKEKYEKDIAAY
T1 sequence (P09429 with tags, fused parts or gaps): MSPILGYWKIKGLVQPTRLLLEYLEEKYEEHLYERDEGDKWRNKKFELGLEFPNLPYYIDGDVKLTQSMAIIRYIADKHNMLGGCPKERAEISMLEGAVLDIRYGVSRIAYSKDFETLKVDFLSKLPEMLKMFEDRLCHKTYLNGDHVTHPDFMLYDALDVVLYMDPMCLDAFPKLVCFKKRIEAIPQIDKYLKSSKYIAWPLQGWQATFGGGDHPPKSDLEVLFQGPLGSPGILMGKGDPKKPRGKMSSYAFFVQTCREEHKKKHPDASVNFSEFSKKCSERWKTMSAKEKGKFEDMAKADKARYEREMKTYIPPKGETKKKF

In the case of “ZH02: HMGB1 A-box binding Z variant, 58 amino acid residues, from primary phage display selection (VDAKYAKEAEDAMHEILWLPNLTWEQQKAFIYKLEDDPSQSSELLSEAKKLNDSQAPK; Engineered HMGB1 binding polypeptide)”, the “average ELISA response against b-GST-boxA(red)” value (b-GST-boxA(red)) is reported as 0.2 AU, the “ELISA response against b-boxA(disulfide)” value (b-boxA(disulfide)) is reported as 2.02 AU and the “Tm (° C.)” value [1] is reported as 58 °C. For the same substance, the “ELISA response against b-HMGB1(disulfide)” value (b-HMGB1(disulfide)) was 1.17 AU.

For “ZH03: HMGB1 A-box binding Z variant, 58 amino acid residues, from primary phage display selection (VDAKYAKEAWQAMEEILWLPNLTNTQQLAFIYKLEDDPSQSSELLSEAKKLNDSQAPK; Engineered HMGB1 binding polypeptide)”, the “average ELISA response against b-GST-boxA(red)” value (b-GST-boxA(red)) was 0.6 AU, the “ELISA response against b-boxA(disulfide)” value (b-boxA(disulfide)) was 1.17 AU and the “Tm (° C.)” value [1] was 54 °C. The “ELISA response against b-HMGB1(disulfide)” value (b-HMGB1(disulfide)) was 2.96 AU.

For “ZH30: HMGB1 B-box binding Z variant, 58 amino acid residues (VDAKYAKEAWSAEQEIWDLPNLTLQQFQAFIMKLLDDPSQSSELLSEAKKLNDSQAPK; Engineered HMGB1 binding polypeptide)”, the “ELISA response against b-GST-boxB(red)” value (b-GST-boxB(red)) was 0.14 AU, the “inhibition of HMGB1 induced cell migration” value (HMGB1(red)) was “inhibit HMGB1 induced cell migration” and the “Tm (° C.)” value [1] was 53 °C.

With “ZH31: HMGB1 B-box binding Z variant, 58 amino acid residues (VDAKYAKEAWLAEQEIWQLPNLTEAQFQAFILKLIDDPSQSSELLSEAKKLNDSQAPK; Engineered HMGB1 binding polypeptide)” the “ELISA response against b-GST-boxB(red)” value (b-GST-boxB(red)) was 0.47 AU, the “inhibition of HMGB1 induced cell migration” value (HMGB1(red)) was “inhibit HMGB1 induced cell migration” and the “Tm (° C.)” value [1] was 57 °C.

— US20220389066A1, “POLYPEPTIDES” (Affibody AB, priority 2019, published 2022)
